Experimental data: PubChem BioAssay AID1963576 (National Center for Advancing Translational Sciences (NCATS), 2024)
In all, about 46,000 compounds went through this assay and about 60 (0.1%) were called active. Another 3% or so got no clear call; they are omitted. Calls come from the whole dose curve; as a rule, active = well fitted inhibition curve with a large enough effect; inconclusive = small, poorly fitted or top-dose-only effect; inactive = no such curve, though single readings can be large or run the other way. This is one part of the list.

Assay: Primary qHTS assay for Inhibitors of ovarian cancer metastasis using an organotypic tumor microenvironment (TME) model.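 For activity change, negative = inhibition: plate controls were DMSO wells for no effect and tomatine positive control wells for full effect.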 Note: nearly all actives have a fitted effect of over 65% in size.
Conditions: SKOV3ip1-GFP adhesion/invasion on 3D omental model, fluorescence; series mostly up to 45.8 µM; activity change, negative = inhibition: at the top concentration
Procedure, shortened: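 A 3D layer of primary human omental fibroblasts, mesothelial cells, fibronectin and collagen I, grown 48 hr, received SKOV3ip1-GFP cells in serum-free medium plus compounds at 0.36-46 umol/L. After 2 hr RT and 16 hr 37 C, fixed adherent GFP cells were counted; normalized to DMSO and tomatine.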

Activity change, negative = inhibition, inactive:
CC(=O)N1c2nc(C(C)C)nn2C2(CCCCC2)[C@@H]2CCCC[C@@H]21 14.7%
CC(C)CN(CCCNC(=O)c1cc(=O)[nH]c2ccc(S(=O)(=O)N3CCCCCC3)cc12)CC(C)C -8.78%
CC(C)C[C@H](NC(=O)CNC(=O)c1cc(Cl)ccc1Cl)B(O)O -8.7%
Cc1nc2nc(NC(=O)c3ccccc3F)[nH]n2c(=O)c1Cl 5.94%
O=C(Nc1ccc2oc(-c3ccc(O)c(Br)c3)nc2c1)c1cc2ccccc2o1 -3.87%
Cc1ccn2c(Nc3ccc(C(C)C)cc3)c(-c3cccs3)nc2c1 -3.25%
CCn1c2c(c(=O)n3ncc(C(=O)Nc4cc(Cl)ccc4C)c13)CN(Cc1ccc(OC)cc1)CC2 -1.79%
COc1ccc(C2C=C(c3cccc(OC)c3)Nc3c(C(=O)Nc4ccccc4)cnn32)cc1 (stereo not drawn) 3.81%
O=C(CSc1nnc(-c2cccc(Cl)c2)o1)N1CCc2ccccc21 9.11%
Cc1ccc(Cl)cc1NC(=O)CCC(=O)N1CC(C)Sc2ccccc21 (stereo not drawn) -8.05%
COc1ccccc1-c1nnc(SCC(=O)Nc2ccccc2F)o1 -8.91%
CC(=O)N1c2ccc(S(=O)(=O)NCC3CCC(C(=O)Nc4ccc(C)cc4)CC3)cc2CC1C (stereo not drawn) -2.52%
Cc1ccc(-n2c(=O)c3c4c(sc3n(CC(=O)c3ccc(Cl)cc3)c2=O)CCC4)cc1C 7.63%
CCOc1ccc(NC(=O)c2cc(S(=O)(=O)N3CCCCCC3)cn2C)cc1 -9.04%
Cc1c2cnn(-c3ccccc3)c(=O)c2c(C)n1CC(=O)NCCc1ccc(Cl)cc1 6.56%
COC(=O)c1cc2sc(C)cc2n1CC(=O)Nc1ccc(C)c(C)c1 -3.24%
COc1cc(CNC(=O)c2ccc3c(c2)N(C)C(=O)C2CCCCN32)cc(OC)c1OC (stereo not drawn) -1.32%
CCOC(=O)c1ccc(NC(=O)Cn2c(=O)n(-c3ccc(C)cc3)c(=O)c3c2cnn3C)cc1 2.61%
Cc1ccccc1NC(=O)Cn1c(SCC(=O)Nc2ccc(F)cc2)nc2ccccc21 -29.6%
Cc1c(-c2nc(-c3ccc4c(c3)OCO4)no2)nnn1-c1ccc(Br)cc1F 1.51%
Cc1ccc2nc(Nc3cccc(Cl)c3C)c(-n3nc(C)cc3C)nc2c1 -4.87%
CC(C)CN(C(=O)c1cccc(S(=O)(=O)N2CCCCC2)c1)C1CCS(=O)(=O)C1 (stereo not drawn) -6.75%
CCOC(=O)c1ccc(N2CCN(c3cccc(OC)c3)CC2)c(NC(=O)Nc2ccc(OCC)cc2)c1 13.4%
CCOC(=O)c1c(NC(=O)c2nc(SCC)ncc2Cl)sc(C(C)=O)c1C -9.61%
Cc1ccc(CNC(=O)Cc2c(C)c3cc4c(C)coc4cc3oc2=O)cc1 0.543%
O=C(COc1ccccc1Cl)OCc1cc(=O)n2nc(-c3cccs3)sc2n1 2.23%
O=[N+]([O-])c1cc(-c2nc(-c3ccccc3)no2)ccc1N1CCCCC1 -10.9%
Cc1ccc(NC(=O)C2CCCN(c3nnc(C)c4c(C)n(-c5ccccc5)nc34)C2)c(Cl)c1 (stereo not drawn) 2.35%
CCC(=O)N1CCc2cc(Br)cc(S(=O)(=O)CCC(=O)N3CCN(c4cccc(C(F)(F)F)c4)CC3)c21 -0.0768%
COc1ccc(C(=O)OCc2cc(=O)n3nc(-c4cccs4)sc3n2)cc1 -1.07%
CCC(Cn1nnc2ccccc2c1=O)NC(=O)Nc1cccc(C)c1C (stereo not drawn) -8.68%
Cc1ccc(S(=O)(=O)Cc2ccc(C(=O)N3CCN(c4cccc(C)c4C)CC3)o2)cc1 11.2%
O=C(Cn1c(=O)n(Cc2ccco2)c(=O)c2ccccc21)Nc1ccc(Cl)cc1Cl -10.7%
CCOC(=O)c1cc(S(=O)(=O)NCc2ccccc2)[nH]n1 -33.7%
CCN(CC)S(=O)(=O)c1ccc2nc(NC(=O)c3cccnc3)sc2c1 -0.0689%
O=C(c1ccc(Cl)cc1)N1CCC(c2ccncc2)CC1 20.8%
CCC[C@H]1C[C@H](C(=O)N[C@@H]([C@@H]2O[C@@H](SC)[C@@H](O)[C@@H](O)[C@@H]2O)[C@H](C)Cl)N(C)C1 12.3%
CC(C)(C)c1ccc(S(=O)(=O)NCc2ccc3c(c2)CCN3C(=O)c2ccccc2)cc1 -7.97%
CCC(CO)NC(=O)C(=O)Nc1c2c(nn1-c1ccc(F)cc1)CSC2 (stereo not drawn) 13.4%
CCN(c1ncnc2c1cnn2-c1ccc(C)cc1)C1CCCCC1 3.29%
CCOc1ccc(CCNC(=O)CCc2cn(Cc3ccccc3F)c3ccccc23)cc1OCC -18.4%
CCOC(=O)c1cccc(NC(=O)c2cc3sccc3n2Cc2ccc(Cl)cc2)c1 56.9%
CCOc1ccc(NC(=O)CSc2nc(-c3ccc(OC)cc3)nc3c2Cc2c(CO)cnc(C)c2O3)cc1 1.04%
COCCn1c(=O)[nH]c2cc(C(=O)NCc3ccccc3Cl)ccc2c1=O -18.6%
CC1CCCCN1c1csc2ccc(F)cc2c1=O (stereo not drawn) -0.557%
COc1ccccc1N1CCN(C(=O)CCc2c(C)nn(-c3ccc(N4CCCC4)nn3)c2C)CC1 17.9%
CCn1cc(-c2ccnc3[nH]c(-c4cccc(CN(C)C)c4)cc23)c(-c2ccc(NC(=O)N(C)C)cc2)n1 1.43%
CCOc1ccn(-c2ccc(F)cc2)c(=O)c1C(=O)Nc1ccc(Oc2ccnc(N)c2Cl)c(F)c1 6.73%
CSc1nc2sc3c(c2c(=O)n1-c1ccc(C)c(Cl)c1)CCN(C(C)=O)C3 -3.76%
COc1cc(C(=O)N(Cc2ccc(C(C)C)cc2)C2CCS(=O)(=O)C2)cc(OC)c1OC (stereo not drawn) -3.33%
COC(=O)c1ccc(NC(=O)CSc2nc(=O)n(Cc3ccco3)c3c2CCC3)cc1 -5.73%
CCOc1ccc(CCNC(=O)c2ccc3c(c2)c(C)c(C)n3C)cc1 2.51%
Cc1ccccc1C(=O)N1CCC(c2nc3ccccc3s2)CC1 2.21%
Cc1nc(Nc2n[nH]c3c2CN(C(=O)N[C@H](CN(C)C)c2ccccc2)C3(C)C)c2sccc2n1 30.2%
CCn1c(SCc2ccccc2)nnc1-c1nonc1NC(C)=O 4.79%
O=C(NCCCc1nc2ccccc2n1Cc1ccccc1Cl)C1CCCCC1 0.627%
CC(=O)C1=C(OC(=O)C(C)C)c2ccccc2S(=O)(=O)N1Cc1ccccc1 3.58%
CCOC(=O)C1CCCN(C(=O)Cn2ncc3c([nH]c4ccccc43)c2=O)C1 (stereo not drawn) 3.55%
CCN(C(=O)CSc1nc2ccccc2n1CC(=O)Nc1cccc(C#N)c1)c1ccccc1 -10.9%
Cc1cc(NC(=O)CN2C(=O)C(C)(C)c3ccccc32)ccc1Br -2.56%
CC(C)c1ccc(NS(=O)(=O)c2ccc3[nH]cc(C(=O)NC4CCCC4)c(=O)c3c2)cc1 1.47%
Cc1ccc(N2CC3=C(C2=O)C(c2ccc(Br)cc2)NC(=O)N3C)cc1 (stereo not drawn) 1.79%
Cc1ccc(-c2nc(C(=O)NCc3ccc(Cl)cc3)c3n2CCCCC3)cc1 -19.7%
O=C1Cc2cc(S(=O)(=O)N3CCN(c4ccccc4)CC3)ccc2N1 -7.64%
CCn1c(=O)cc(SCC(=O)Nc2ccc(C)c(F)c2)c2ccccc21 0.735%
O=C(Cn1c(=O)oc2cc(S(=O)(=O)N3CCCCCC3)ccc21)Nc1cccc(C(F)(F)F)c1 5.68%
Cc1ccccc1CNC(=O)c1ccc(NC(=O)c2nsc3ccccc23)cc1 0.177%
CCc1ccccc1N(C)C(=O)c1cn(CC(C)C)c(=O)c2cc(OC)c(OC)cc12 -6.15%

outcome, inactive:
CCOc1ccc2oc(=O)cc(CN3CCN(c4cc(C)ccc4C)CC3)c2c1
Cc1cccc(N2CCN(C(=O)c3cccn4c(=O)c5cc(Cl)ccc5nc34)CC2C)c1 (stereo not drawn)
COc1cc(OC)c(NC(=O)C2=C(C)C(=O)OC23CCCCCC3)cc1Cl
O=C(NCCc1ccc(Cl)cc1)C1CCN(c2ncnc3c2nc2n3CCCCC2)CC1
CN(Cc1ccco1)C(=O)c1ccc2c(c1)N(Cc1ccccc1F)C(=O)c1ccccc1S2
COc1ccc2c(c1)c1c(c(=O)n(-c3ccc(F)c(Cl)c3)c(=O)n1CC(=O)N1CCCC1)n2C
CC(=O)N1CCc2c(sc3c2c(=O)n(-c2ccccc2)c(=O)n3CC(=O)Nc2ccccc2)C1
O=C(O)c1ccc(CNCc2ccc(Cl)cc2)s1
CC1=C(C(=O)Nc2ccccc2)C(c2ccncc2)n2nc(SCc3ccccc3Cl)nc2N1 (stereo not drawn)
O=C(Cn1c(=O)ccc2cc(S(=O)(=O)N3CCCC3)ccc21)NCc1ccc(Cl)cc1
COc1cc(-c2noc(-c3ccc(N4CCN(C)CC4)c([N+](=O)[O-])c3)n2)cc(OC)c1OC
Cc1cc(Nc2ccc(C)c(Cl)c2)n2nc(Cc3ccccc3)nc2n1
COc1ccccc1CNS(=O)(=O)c1c(C)nc2scc(C)n2c1=O
CCOc1ccc(NC(=O)c2c(Nc3ccc(OC)cc3OC)sc(C(=O)c3ccc(Cl)cc3)c2N)cc1
Cn1nc(C(=O)Nc2cc(F)ccc2F)c2c1-c1ccccc1SC2
Cc1cccc(-c2nc(SCc3ccc(Br)cc3)n3[nH]c(=O)cc3n2)c1
CCOC(=O)c1cnn(-c2ccc(OC)cc2)c1C1CCN(C(=O)OC(C)(C)C)CC1
COC(=O)c1ccc(NC(=O)CCc2c(C)nn(-c3ccc(N4CCCC4)nn3)c2C)cc1
COc1cc(NC(=O)c2nnn(Cc3ccc(F)cc3)c2N)cc(OC)c1
Cc1[nH]n2c(=O)cc(-c3ccccc3Cl)nc2c1-c1ccccc1
CCC(=O)N1CCc2cc(Br)cc(S(=O)(=O)NCCc3ccc(OC)c(OC)c3)c21
Cc1ccc(CNC(=O)CC2Oc3ccccc3NC2=O)cc1 (stereo not drawn)
Cc1ccccc1Nc1sc(C(=O)c2ccc3c(c2)OCO3)c(N)c1S(=O)(=O)c1ccccc1
Cc1nn(CC(=O)NCc2ccco2)c(=O)c2cc3ccccc3n12

Potency, inactive:
COc1ccc([C@@H]2CC(=O)c3c(O)cc(O[C@@H]4O[C@H](CO[C@@H]5O[C@@H](C)[C@H](O)[C@@H](O)[C@@H]5O)[C@@H](O)[C@H](O)[C@@H]4O)cc3O2)cc1O
